# Test results from PubChem BioAssay AID1347165 (National Center for Advancing Translational Sciences (NCATS), 2019).
# The campaign covered roughly 220,000 compounds. About 5,700 (2.6%) were called active. This list was built around the results that the source calls inconclusive (neither active nor inactive); the mix of calls is not that of the screen. The call rests on the fitted dose curve; in most records, active means well fitted inhibition curve with a large enough effect; inconclusive means small, poorly fitted or top-dose-only effect; inactive means no such curve, though single readings can be large or run the other way. Where the call is inconclusive, the potency comes from a doubtful curve fit.
# Molecular target: Lysine-specific demethylase 5B (Homo sapiens) (UniProt Q9UGL1)
# Assay: Primary screen for KDM5B Histone Demethylases FDH-coupled qHTS; further: nearly all actives have a fitted effect of over 70% in size
# Settings: FDH-coupled NADH fluorescence (FDH is formaldehyde dehydrogenase); series mostly up to 57.7 µM
# Summary of the method: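 Compound dilutions met 200 nM (final) KDM5BΔAP for 10 min at room temperature before substrate addition. The substrate mix held 12.5 µM H3K4me3 with cofactors 25 µM α-ketoglutarate and 50 µM Fe²⁺. NADH signal gain over 30 min defined activity.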
# Potency means the concentration at half of the fitted maximal effect; tags describe the fitted curve by direction and shape.
# UniProt Q9UGL1, sequence (Q9UGL1 whole entry, looked up): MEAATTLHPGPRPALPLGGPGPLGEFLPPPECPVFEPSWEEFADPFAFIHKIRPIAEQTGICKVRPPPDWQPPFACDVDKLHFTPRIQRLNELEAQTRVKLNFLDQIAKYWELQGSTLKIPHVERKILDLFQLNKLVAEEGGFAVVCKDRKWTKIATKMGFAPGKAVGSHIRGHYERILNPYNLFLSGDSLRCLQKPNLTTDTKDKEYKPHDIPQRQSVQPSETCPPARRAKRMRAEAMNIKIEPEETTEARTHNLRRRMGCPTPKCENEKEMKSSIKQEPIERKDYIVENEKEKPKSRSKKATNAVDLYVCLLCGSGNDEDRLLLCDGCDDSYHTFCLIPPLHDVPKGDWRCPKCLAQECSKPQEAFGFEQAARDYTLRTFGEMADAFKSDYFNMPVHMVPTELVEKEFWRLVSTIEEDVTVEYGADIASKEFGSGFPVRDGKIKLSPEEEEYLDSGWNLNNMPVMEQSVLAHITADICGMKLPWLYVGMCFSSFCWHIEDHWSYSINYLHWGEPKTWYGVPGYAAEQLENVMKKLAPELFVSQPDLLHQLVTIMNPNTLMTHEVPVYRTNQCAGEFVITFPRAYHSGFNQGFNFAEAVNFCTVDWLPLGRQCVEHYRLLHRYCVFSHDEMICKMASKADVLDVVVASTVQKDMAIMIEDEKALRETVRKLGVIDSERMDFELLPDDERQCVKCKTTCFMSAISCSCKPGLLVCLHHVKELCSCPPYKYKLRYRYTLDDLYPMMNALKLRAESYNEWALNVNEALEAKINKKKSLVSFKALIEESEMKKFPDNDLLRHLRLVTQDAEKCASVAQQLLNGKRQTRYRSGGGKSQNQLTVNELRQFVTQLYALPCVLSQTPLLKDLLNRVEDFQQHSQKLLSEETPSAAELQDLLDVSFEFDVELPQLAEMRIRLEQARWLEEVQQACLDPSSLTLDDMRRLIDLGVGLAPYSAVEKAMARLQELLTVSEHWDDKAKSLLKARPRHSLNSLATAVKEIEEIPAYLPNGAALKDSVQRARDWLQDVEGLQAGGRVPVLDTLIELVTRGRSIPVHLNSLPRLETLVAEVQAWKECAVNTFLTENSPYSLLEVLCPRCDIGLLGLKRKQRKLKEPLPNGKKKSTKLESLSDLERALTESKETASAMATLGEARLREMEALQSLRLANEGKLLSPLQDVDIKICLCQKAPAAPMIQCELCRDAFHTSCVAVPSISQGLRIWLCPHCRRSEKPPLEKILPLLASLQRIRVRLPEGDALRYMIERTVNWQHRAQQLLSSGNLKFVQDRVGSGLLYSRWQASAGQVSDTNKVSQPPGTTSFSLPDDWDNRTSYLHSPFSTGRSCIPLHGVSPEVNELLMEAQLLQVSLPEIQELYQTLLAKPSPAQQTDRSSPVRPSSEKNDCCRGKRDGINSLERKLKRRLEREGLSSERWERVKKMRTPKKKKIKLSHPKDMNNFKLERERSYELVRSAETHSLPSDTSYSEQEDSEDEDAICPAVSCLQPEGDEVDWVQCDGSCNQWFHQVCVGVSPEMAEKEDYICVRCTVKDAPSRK
row,Compound,Potency
1,O=C(/C=C/c1cc(Br)cc(Br)c1O)c1ccccc1,"inconclusive: 10 µM [inhibitor, partial curve, poor fit]"
2,O=C(NC(c1ccccc1)c1ccccc1)c1cnc2c(c1)N([S+](=O)([O-])c1cccnc1)CCC2,"inconclusive: 22.4 µM [inhibitor, single point]"
3,CCOC(=O)c1[nH]c2ccccc2c1NC(=O)c1ccc(OCC)cc1,"inconclusive: 25.1 µM [inhibitor, partial curve, poor fit]"
4,COCCC(=O)N[C@@H]1CN(Cc2ccccn2)C[C@H]1CN(C)C,"inconclusive: 17.8 µM [inhibitor, partial curve, poor fit]"
5,Cc1ccc(-n2ncc3c(NCCCn4ccnc4)ncnc32)cc1,"inconclusive: 25.1 µM [inhibitor, partial curve, poor fit]"
6,CCc1c(C)sc2nc(N(CC)CCO)n3nc(-c4ccccc4)nc3c12,inactive
7,COC1CCOC2(CCN(C(=O)c3ccco3)CC2)C1 (stereo not drawn),inactive
8,CCC1Oc2ccc(NC(=O)c3ccc4c(c3)OCO4)cc2CN(Cc2ccccc2)C1=O (stereo not drawn),"inconclusive: 28.2 µM [inhibitor, partial curve]"
9,O=C(NC1CCCCC1)N1Cc2[nH]cnc2C[C@H]1c1nc(-c2ccc3c(c2)OCO3)no1,"inconclusive: 15.8 µM [inhibitor, partial curve, poor fit]"
10,Cc1nccc(N2CCC3(CC2)CN(CCCN2CCC(N(C)C)C2)C(=O)O3)n1 (stereo not drawn),"inconclusive: 14.1 µM [inhibitor, partial curve]"
11,COc1cccc(-c2ccc3c(n2)CN(CC(=O)N2CCCC2)C(=O)CO3)c1,"inconclusive: 25.1 µM [inhibitor, single point]"
12,CCOC(=O)c1cccc(NC(=O)c2cc3c(=O)n(Cc4cccnc4)ccc3nc2C)c1,"inconclusive: 28.2 µM [inhibitor, partial curve, poor fit]"
13,Cc1ccc(-n2c3nc(=O)[nH]c(=O)c-3cc3ccc(Cl)cc32)c(C)c1,"inconclusive: 14.1 µM [inhibitor, partial curve, poor fit]"
14,Cc1c(CCC(=O)NC2Cc3ccccc3C2)c(=O)oc2cc(O)ccc12,"inconclusive: 22.4 µM [inhibitor, partial curve, poor fit]"
15,CC(Cc1cnccn1)NC(=O)c1ccc2nc(-c3ccc(F)cc3)cn2c1 (stereo not drawn),"inconclusive: 31.6 µM [inhibitor, partial curve, poor fit]"
16,COc1ccc(C(=O)NCc2nnc3ccc(-c4ccc(C)cc4)nn23)c(C)c1,active: 28.2 µM
17,O=C(Nc1ccc(S(=O)(=O)Nc2cnc3ccccc3n2)cc1)c1cccc(OC(F)F)c1,"inconclusive: 39.8 µM [inhibitor, single point]"
18,Cc1cccc(C(=O)NC(Nc2cc(C)ccc2C)C(Cl)(Cl)Cl)c1 (stereo not drawn),inactive
19,CCOc1ccc(-c2cc(C(=O)NCc3ccc(OC)cc3)c3c(-c4ccc(F)cc4)[nH]nc3n2)cc1,"inconclusive: 31.6 µM [inhibitor, single point]"

row,Compound,Potency
1,CC(C)(C)C(=O)/C(C#N)=C\c1ccc(C#N)cc1,"inconclusive: 39.8 µM [inhibitor, single point]"
2,O=C(Cc1ccc(Cl)cc1)N1CCCN(c2cc(-c3ccccc3)[nH]n2)CC1,"inconclusive: 31.6 µM [inhibitor, partial curve, poor fit]"
3,CCc1ccc(-c2nc3c(c(=O)[nH]c(=O)n3Cc3ccccc3)n2CC2CCCO2)cc1 (stereo not drawn),"inconclusive: 20 µM [inhibitor, partial curve, poor fit]"
4,COc1ccc2nc(SC3CC(=O)N(c4cccc5ccccc45)C3=O)nc(C)c2c1 (stereo not drawn),"inconclusive: 25.1 µM [inhibitor, partial curve, poor fit]"
5,CCCCOc1ccccc1NC(=O)Cn1c(-c2cncs2)nc2ccccc21,"inconclusive: 7.94 µM [inhibitor, partial curve, poor fit]"
6,CC(=O)Nc1cccc(-c2ccnc(-c3nnc(C)n3CCN3CCOCC3)c2)c1,"inconclusive: 28.2 µM [inhibitor, partial curve, poor fit]"
7,CN1CCOc2c(C(=O)NCCC(N)=O)cc(-c3ccccc3OC(F)(F)F)cc21,active: 39.8 µM
8,COc1ccc(-c2ccc3c(c2)C(=O)N2CC[C@H](NC(=O)COCC(=O)O)[C@H]2C(=O)N3)cc1,active: 20 µM
9,COc1ccc(-c2cc(N3CCC(NC(=O)c4ccc(C)cc4)C3)n[nH]2)cc1 (stereo not drawn),"inconclusive: 6.31 µM [inhibitor, partial curve, poor fit]"
10,CC(=O)C1=C(C)OC(N)=C(C#N)C1c1cccc2ccccc12 (stereo not drawn),"inconclusive: 25.1 µM [inhibitor, partial curve, poor fit]"
11,COc1ccc(CN2CCNC(=O)C2CC(=O)NC2CCCCCC2)c(C)c1C (stereo not drawn),inactive
12,CC(C)CCN(C(=O)CN(C)c1ccccc1)c1c(N)n(Cc2ccccc2)c(=O)[nH]c1=O,inactive
13,CC(C)Cn1c(-c2ccc(S(=O)(=O)N3CCCC3)cc2)csc1=Nc1ccccc1,"inconclusive: 20 µM [inhibitor, partial curve, poor fit]"
14,COc1ccc(-c2ccnc(N[C@H]3CO[C@H]4[C@@H]3OC[C@@H]4NC(=O)Nc3ccc(C(C)=O)cc3)n2)cc1,inactive
15,O=C(COc1ccccc1)N[C@@H]1CN(c2ncccn2)C[C@H]1CO,"inconclusive: 20 µM [inhibitor, partial curve, poor fit]"
16,Cc1cccc(CNCc2ccco2)c1,"inconclusive: 35.5 µM [inhibitor, partial curve, poor fit]"
17,CCOc1ccccc1CN1CCC2(CCN(C(=O)C(C)(C)C)CC2)Oc2ccccc21,"inconclusive: 11.2 µM [inhibitor, partial curve]"
18,CC(=O)Nc1ccc(C(=O)NC2CCN(c3cc(-c4ccccc4)[nH]n3)C2)cc1 (stereo not drawn),"inconclusive: 15.8 µM [inhibitor, partial curve]"
19,Cn1cc2c3c(cccc31)CN(C(=O)c1ccccc1Br)CC2,inactive
